In all, about 18,000 sequences were measured (“TetR repression strength (sort-seq, GFP reporter)”: median about 0.23, highest 2% from about 0.68 on). Some of the results follow.

The assay has as its target TetR (class B, Tn10) (UniProt P04483). The experiment in a line: TetR repression strength (sort-seq, GFP reporter) (relative to tetO2 = 1); higher = stronger repression. The conditions noted are these: E. coli. The method, boiled down: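 Escherichia coli SIG10-MAX cells carried a low-copy plasmid library in which eight operator positions were randomized between a constitutive promoter and sfGFP, and TetR was expressed constitutively. After 5 h of growth at 37 °C in LB with 50 µg/mL chloramphenicol, 10^6 cells were FACS-sorted into 13 fluorescence bins, and each bin was Illumina-sequenced. Repression strength was the top bin index plus one minus the read-weighted mean bin, divided by the value for the unaltered operator. Across three independent transformations, only library members with ≥30 reads in every replicate and a CV ≤0.5 were averaged.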
UniProt P04483, sequence (P04483 whole entry): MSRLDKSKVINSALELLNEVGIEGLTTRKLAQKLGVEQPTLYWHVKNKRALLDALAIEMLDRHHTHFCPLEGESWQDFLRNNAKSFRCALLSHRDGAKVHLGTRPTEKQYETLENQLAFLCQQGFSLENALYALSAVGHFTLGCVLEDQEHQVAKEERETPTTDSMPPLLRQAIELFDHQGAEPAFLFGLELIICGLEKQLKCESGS
As for TCCCTTCGAGTCTCGGAGA, the TetR repression strength came to 0.042.
TCCCTTCTAGTAGGAGAGA gave a TetR repression strength of 0.35.
TCCCAAAGAGTCCTAGAGA yielded a TetR repression strength of 0.299.
Take TCCCTCGCAGTTCGAGAGA: the TetR repression strength came out at 0.167.
On to TCCCGCTCAGTGATCGAGA, for which the TetR repression strength is 0.435.
TCCCGTCAAGTGACCGAGA displayed a TetR repression strength of 0.138.
Then TCCCTCACAGTTGTAGAGA, with 0.373.
TCCCCGCTAGTTTATGAGA: the TetR repression strength turned out to be 0.359.
In the case of TCCCTCGTAGTGGGGGAGA it was 0.167.
The sequence TCCCAGCTAGTTAGAGAGA had a TetR repression strength of 0.352.
As to TCCCCGACAGTGGGGGAGA, the TetR repression strength was 0.175.
In turn, TCCCTAGAAGTAGATGAGA had a TetR repression strength of 0.277.
The sequence TCCCTTTAAGTCTGGGAGA came in with a TetR repression strength of 0.219.
Then TCCCTCCGAGTAAACGAGA, with 0.408; and TCCCTTTGAGTGGGTGAGA, with 0.495; and TCCCCATTAGTTGTAGAGA, with 0.237.
In the case of TCCCTAGGAGTTTCAGAGA it was 0.254; in that of TCCCCTCAAGTCGGGGAGA, 0.0661; in that of TCCCCTAGAGTCCAAGAGA, 0.213.
The sequence TCCCCGCAAGTTGTTGAGA returned a TetR repression strength of 0.198.
Then TCCCTACTAGTCTGGGAGA, with 0.175.
Then TCCCTCAGAGTATAAGAGA, with 0.292; and TCCCACGTAGTTGGCGAGA, with 0.242; and TCCCGGGAAGTCGCTGAGA, with 0.261.
In the case of TCCCATTGAGTATGGGAGA it was 0.0159; in that of TCCCTGACAGTCAGTGAGA, 0.176; in that of TCCCTAGTAGTGGGGGAGA, 0.206.
For the sequence TCCCCGCAAGTTGATGAGA, the TetR repression strength was found to be 0.85.
TCCCGGCTAGTAATAGAGA returned a TetR repression strength of 0.674.
Consider TCCCGGGGAGTGTAGGAGA, for which the TetR repression strength turned out to be 0.485.
In the case of TCCCCCATAGTACAAGAGA it was 0.4.
Sequence TCCCTGGCAGTTGAGGAGA yielded a TetR repression strength of 0.14.
In the case of TCCCAATGAGTTATAGAGA it was 0.607.
With TCCCTATCAGTGCGGGAGA, the TetR repression strength worked out at 0.41.
For the sequence TCCCACTAAGTCGAGGAGA, the TetR repression strength was found to be 0.201.
On to TCCCTATCAGTGGGTGAGA, for which the TetR repression strength amounted to 0.554.
In turn, TCCCAAGTAGTGGATGAGA displayed a TetR repression strength of 0.229.
TCCCATTCAGTAAAGGAGA: the TetR repression strength was determined as 0.272.
For TCCCTTGAAGTTTGAGAGA, the TetR repression strength turned out to be 0.128.
TCCCGTATAGTTGGGGAGA gave a TetR repression strength of 0.156.
Turning to TCCCCGTGAGTCTGTGAGA, the TetR repression strength turned out to be 0.631.
For TCCCGGGGAGTCGGTGAGA, the TetR repression strength came to 0.245.
Then TCCCGGGAAGTCAAAGAGA, with 0.19; and TCCCGTTGAGTAGGGGAGA, with 0.0793.
Regarding TCCCATGTAGTTAGTGAGA, the TetR repression strength amounted to 0.24.
Sequence TCCCTTCTAGTAAGAGAGA had a TetR repression strength of 0.223.
TCCCACTCAGTCAAAGAGA gave a TetR repression strength of 0.367.
Sequence TCCCAAAAAGTGTGAGAGA returned a TetR repression strength of 0.197.
TCCCATTGAGTATGAGAGA: the TetR repression strength was 0.184.
Then TCCCTAGTAGTCAGTGAGA, with 0.435; and TCCCGAGGAGTACGGGAGA, with 0.219.
As to TCCCACAGAGTCTGTGAGA, the TetR repression strength is 0.0546.
In turn, TCCCAGCGAGTAGGTGAGA showed a TetR repression strength of 0.145.
TCCCTGGTAGTGAGTGAGA returned a TetR repression strength of 0.057.
On to TCCCGGGAAGTCGGAGAGA, for which the TetR repression strength was 0.202.
The sequence TCCCAGTAAGTCCGAGAGA came in with a TetR repression strength of 0.263.
TCCCGCCGAGTTGAGGAGA returned a TetR repression strength of 0.429.
In the case of TCCCGCGGAGTGATAGAGA, the TetR repression strength was 0.597.
TCCCTGGAAGTCAGTGAGA: the TetR repression strength came out at 0.326.
TCCCAAACAGTTGTAGAGA returned a TetR repression strength of 0.242.
The sequence TCCCAGCTAGTCGACGAGA showed a TetR repression strength of 0.126.
TCCCGAACAGTTTTGGAGA: the TetR repression strength stood at 0.291.
In the case of TCCCTACTAGTAGCTGAGA it was 0.307; in that of TCCCGGTTAGTGTCGGAGA, 0.298; in that of TCCCAACGAGTGAGCGAGA, 0.301.
Sequence TCCCGGGGAGTGGTCGAGA registered a TetR repression strength of 0.207.
For TCCCTGTTAGTAGGCGAGA, the TetR repression strength came to 0.421.
Take TCCCCACTAGTGTTTGAGA: the TetR repression strength was 0.549.
As to TCCCGTTCAGTAGATGAGA, the TetR repression strength stood at 0.246.
Then TCCCGAAGAGTATGGGAGA, with 0.145.
The sequence TCCCTGGAAGTCTAGGAGA yielded a TetR repression strength of 0.023.
Take TCCCTTGTAGTTTAGGAGA: the TetR repression strength was 0.503.
On to TCCCATTGAGTGCACGAGA, for which the TetR repression strength is 0.443.
Sequence TCCCTAATAGTACAGGAGA gave a TetR repression strength of 0.32.
TCCCGATAAGTGTAGGAGA came in with a TetR repression strength of 0.238.
Then TCCCGTGGAGTAACCGAGA, with 0.188.
As for TCCCTGAAAGTTAGGGAGA, the TetR repression strength came to 0.308.
With TCCCCGCGAGTTTCTGAGA, the TetR repression strength stood at 0.357.
Then TCCCATTTAGTAGCTGAGA, with 0.0133; and TCCCGGGCAGTACAAGAGA, with 1.05.
In the case of TCCCTTCGAGTGGTCGAGA, the TetR repression strength was determined as 0.352.
As for TCCCTTGGAGTCAAGGAGA, the TetR repression strength worked out at 0.283.
Then TCCCGTGGAGTATAGGAGA, with 0.127.
Sequence TCCCGGCGAGTCTATGAGA yielded a TetR repression strength of 0.448.
Consider TCCCCGAAAGTCAGTGAGA, for which the TetR repression strength came to 0.209.
In the case of TCCCATTAAGTTCTGGAGA, the TetR repression strength stood at 0.285.
In the case of TCCCGTGCAGTTGCAGAGA, the TetR repression strength came out at 0.376.
For the sequence TCCCTCGGAGTGTTGGAGA, the TetR repression strength came out at 0.349.
Sequence TCCCTAGAAGTGGTTGAGA had a TetR repression strength of 0.243.
Then TCCCAGGGAGTAACAGAGA, with 0.261; and TCCCGGCGAGTGTGCGAGA, with 0.153.
TCCCGTCAAGTCAAAGAGA yielded a TetR repression strength of 0.27.
Then TCCCGGCAAGTTAGGGAGA, with 0.134; and TCCCGGCAAGTAGTTGAGA, with 0.144; and TCCCCTGCAGTCGGGGAGA, with 0.169.
Then TCCCAATTAGTTTGCGAGA, with 0.236; and TCCCAGGGAGTTCCAGAGA, with 0.216; and TCCCAGTAAGTCTCGGAGA, with 0.206.
TCCCATTTAGTATAAGAGA displayed a TetR repression strength of 0.275.
Turning to TCCCCAGCAGTGCACGAGA, the TetR repression strength is 0.175.
TCCCTGTGAGTTCTGGAGA registered a TetR repression strength of 0.225.
Sequence TCCCCGCTAGTCTCAGAGA showed a TetR repression strength of 0.319.

For the origin of these results see a collection of fitness landscapes (doi:10.1038/s41467-024-54723-y).
